These results are taken from article PMC5217673.

Amino acid sequences for entries named in this document (tags omitted). A change or cut given only in a name is not applied to a line headed by its entry. Residues count along the entry.
GST-N-WASP WH1 + GBD (residues 30–274) (O00401, residues 30-274): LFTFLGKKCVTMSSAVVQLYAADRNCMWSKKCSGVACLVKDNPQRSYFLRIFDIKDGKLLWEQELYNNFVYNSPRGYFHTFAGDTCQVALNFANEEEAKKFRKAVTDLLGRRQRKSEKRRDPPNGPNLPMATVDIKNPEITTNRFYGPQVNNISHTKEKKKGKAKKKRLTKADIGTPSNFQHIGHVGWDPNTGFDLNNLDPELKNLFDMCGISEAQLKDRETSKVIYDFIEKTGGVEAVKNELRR
GST-N-WASP WH1 domain (residues 30–142) (O00401, residues 30-142): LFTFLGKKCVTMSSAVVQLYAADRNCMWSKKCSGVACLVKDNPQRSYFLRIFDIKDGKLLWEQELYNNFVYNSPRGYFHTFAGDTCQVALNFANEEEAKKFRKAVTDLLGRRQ
GST-N-WASP extended GBD (residues 156–274) (O00401, residues 156-274): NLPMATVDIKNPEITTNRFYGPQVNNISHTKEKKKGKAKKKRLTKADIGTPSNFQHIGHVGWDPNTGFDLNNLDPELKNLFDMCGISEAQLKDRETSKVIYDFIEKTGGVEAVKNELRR
UniProt Q7BCK4: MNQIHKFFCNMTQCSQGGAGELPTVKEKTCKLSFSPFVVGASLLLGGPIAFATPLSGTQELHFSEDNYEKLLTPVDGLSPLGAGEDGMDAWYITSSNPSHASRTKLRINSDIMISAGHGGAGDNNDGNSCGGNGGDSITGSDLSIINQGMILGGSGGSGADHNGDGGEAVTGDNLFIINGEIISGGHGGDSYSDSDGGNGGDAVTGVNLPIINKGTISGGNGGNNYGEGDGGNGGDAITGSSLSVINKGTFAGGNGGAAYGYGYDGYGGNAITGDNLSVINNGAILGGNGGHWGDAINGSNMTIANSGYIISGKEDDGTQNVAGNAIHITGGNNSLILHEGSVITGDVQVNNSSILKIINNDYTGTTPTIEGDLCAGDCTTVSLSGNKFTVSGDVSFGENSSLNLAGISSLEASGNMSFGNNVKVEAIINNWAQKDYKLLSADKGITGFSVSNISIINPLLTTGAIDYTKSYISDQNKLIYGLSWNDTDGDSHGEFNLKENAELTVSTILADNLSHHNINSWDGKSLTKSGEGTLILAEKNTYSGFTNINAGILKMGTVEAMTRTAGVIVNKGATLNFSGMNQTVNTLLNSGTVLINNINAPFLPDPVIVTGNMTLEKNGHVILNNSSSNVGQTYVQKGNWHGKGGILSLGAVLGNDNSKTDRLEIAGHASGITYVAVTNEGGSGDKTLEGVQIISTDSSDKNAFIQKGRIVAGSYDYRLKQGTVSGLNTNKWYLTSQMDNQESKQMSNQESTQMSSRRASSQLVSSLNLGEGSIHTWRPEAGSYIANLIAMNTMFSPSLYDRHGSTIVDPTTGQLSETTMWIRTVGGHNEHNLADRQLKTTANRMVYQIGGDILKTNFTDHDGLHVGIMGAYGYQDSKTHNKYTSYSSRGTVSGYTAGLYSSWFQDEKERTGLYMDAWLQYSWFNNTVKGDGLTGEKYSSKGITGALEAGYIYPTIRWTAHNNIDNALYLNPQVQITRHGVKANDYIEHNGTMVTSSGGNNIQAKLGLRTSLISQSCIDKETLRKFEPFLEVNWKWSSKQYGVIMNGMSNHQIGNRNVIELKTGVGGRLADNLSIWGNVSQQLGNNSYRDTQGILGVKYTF

Results are given in words; binding and its absence hold for the method and conditions named. In cells and extracts the contact can be indirect. Some entries that bind do so weakly or less than the wild type.

Experiment in all cases: pull-down; GST-N-WASP proteins (50 μg) on magnetic GST beads, Myc-IcsA truncations from wheat germ cell-free reactions, 50 mM Tris pH 7.4, 50 mM NaCl, 0.1% Nonidet P-40, 1 h at 4 °C; Western blot against Myc; only the target purified
The target of assay [1] is GST-N-WASP extended GBD (residues 156–274) (UniProt O00401).
Assay [2] deals with GST-N-WASP WH1 domain (residues 30–142) (UniProt O00401).
The target of assay [3] is GST-N-WASP WH1 + GBD (residues 30–274) (UniProt O00401).

Regarding “Myc-IcsA residues 53–433 (from UniProt Q7BCK4 53-433) (domain or fragment)”, the binding entry in assay [1] is recorded as “binds”.
“Myc-IcsA residues 203–508 (from UniProt Q7BCK4 203-508) (domain or fragment)”: in assay [2], the binding entry is “no binding”.
Turning to “Myc-IcsA residues 173–433 (from UniProt Q7BCK4 173-433) (domain or fragment)”, the results for the binding entry in assay [3], in assay [2] and in assay [1] were “binds”, “binds” and “no binding”, respectively.
As for “Myc-IcsA residues 53–508 (from UniProt Q7BCK4 53-508) (domain or fragment)”, the binding entry in assay [3], in assay [2] and in assay [1] was “binds” in each case.
